Source: the supplement of paper PMC7125110
± gives the standard error. Variants at the background level are over-represented here.

B1: glmS ribozyme (parent)
chain: AUAAAAGCGCCAGAACUACAGAAAUGUAGUUGACGAGGAGGAGGUUUAUCGAAUUUUCGGCGGAUGCCUCCAAA

Assays:
Conditions in all cases: with glucosamine-6-phosphate
glucosamine-6-phosphate [1] = variants of: B1; assay: self-cleavage kobs at 40 uM GlcN6P; higher = faster cleavage; RNA array
Outline: (§1)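 kobs was derived by fitting per-tile medians to one- or two-exponential decays after normalising signals to baseline and to non-cleaving reference variants. Those signals came from barcoded ribozyme variants transcribed in situ by E. coli RNA polymerase on sequenced MiSeq chips, followed through a hybridised Cy3 probe at 37 °C and imaged over ~14 h. Glucosamine-6-phosphate (40 μM to 10 mM) in HEPES/KCl/Mg(OAc)2 buffer was flowed in. Weighted Michaelis–Menten fits across concentrations then gave kcat and KM.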

glucosamine-6-phosphate [2] = variants of: B1; assay: self-cleavage kobs at 640 uM GlcN6P; higher = faster cleavage; RNA array
Outline: as §1

glucosamine-6-phosphate [3] = variants of: B1; assay: self-cleavage kobs at 2500 uM GlcN6P; higher = faster cleavage; RNA array
Outline: as §1

glucosamine-6-phosphate [4] = variants of: B1; assay: self-cleavage kobs at 10000 uM GlcN6P; higher = faster cleavage; RNA array
Outline: as §1

glucosamine-6-phosphate [5] = variants of: B1; assay: self-cleavage kobs at 160 uM GlcN6P; higher = faster cleavage; RNA array
Outline: as §1

Variant | self-cleavage kobs at 40 uM GlcN6P (glucosamine-6-phosphate [1]) [s⁻¹] | self-cleavage kobs at 640 uM GlcN6P (glucosamine-6-phosphate [2]) [s⁻¹] | self-cleavage kobs at 2500 uM GlcN6P (glucosamine-6-phosphate [3]) [s⁻¹] | self-cleavage kobs at 10000 uM GlcN6P (glucosamine-6-phosphate [4]) [s⁻¹] | self-cleavage kobs at 160 uM GlcN6P (glucosamine-6-phosphate [5]) [s⁻¹]
U31C G35U A53U | < 1e-05 | < 1e-05 | < 1e-05 | < 1e-05 | –
U31C G40A U69A | < 1e-05 | – | – | – | –
U31C G51C | < 1e-05 | – | < 1e-05 | < 1e-05 | –
U31C G51C U55A G63U C68G C71U | < 1e-05 | – | – | – | –
U31C G59C | < 1e-05 | – | < 1e-05 | < 1e-05 | –
U31C U49C C67U | < 1e-05 | – | – | – | –
U31G A33C G63C | < 1e-05 | – | – | – | –
U31G A33U G38C G44A | < 1e-05 | – | – | < 1e-05 | –
U31G A36G | < 1e-05 | – | – | – | < 1e-05
U31G A42U | < 1e-05 | – | – | – | –
U31G A53U C58G G60A | < 1e-05 | – | – | – | –
U31G A64C | < 1e-05 | – | – | – | < 1e-05
U31G C34U A42G | < 1e-05 | < 1e-05 | < 1e-05 | < 1e-05 | < 1e-05
U31G C50U | < 1e-05 | – | – | – | –
U31G G38U G63A | < 1e-05 | – | – | – | –
U31G G60U | < 1e-05 | < 1e-05 | < 1e-05 | < 1e-05 | < 1e-05
U31G G62C | < 1e-05 | < 1e-05 | – | < 1e-05 | < 1e-05
U31G G63U | < 1e-05 | < 1e-05 | < 1e-05 | < 1e-05 | < 1e-05
U31G U49C | < 1e-05 | < 1e-05 | < 1e-05 | < 1e-05 | < 1e-05
U31G U55G C58U | < 1e-05 | – | – | – | –
U31G U65C | < 1e-05 | – | – | – | –
G32A A36G G41A | < 1e-05 | – | < 1e-05 | – | –
G32A A36U G44U | < 1e-05 | – | – | < 1e-05 | –
G32A A52C | < 1e-05 | < 1e-05 | – | – | –
G32A A52U | < 1e-05 | – | – | – | < 1e-05
G32A A53U U65C | < 1e-05 | < 1e-05 | – | – | < 1e-05

Variant | self-cleavage kobs at 40 uM GlcN6P (glucosamine-6-phosphate [1]) [s⁻¹] | self-cleavage kobs at 640 uM GlcN6P (glucosamine-6-phosphate [2]) [s⁻¹] | self-cleavage kobs at 2500 uM GlcN6P (glucosamine-6-phosphate [3]) [s⁻¹] | self-cleavage kobs at 10000 uM GlcN6P (glucosamine-6-phosphate [4]) [s⁻¹] | self-cleavage kobs at 160 uM GlcN6P (glucosamine-6-phosphate [5]) [s⁻¹]
G32A C34A | < 1e-05 | – | < 1e-05 | < 1e-05 | –
G32A C61U G62A C68U | < 1e-05 | – | – | – | < 1e-05
G32A C68A | < 1e-05 | – | – | – | –
G32A C71U | 3.68e-05 ± 5.2e-06 | 0.000487 ± 4.1e-05 | 0.00122 ± 0.00011 | 0.00326 ± 0.00033 | 0.000159 ± 1.6e-05
G32A G43A C50A | < 1e-05 | – | – | – | –
G32A G43A G44C U54A | < 1e-05 | – | – | – | –
G32A G43U | < 1e-05 | < 1e-05 | < 1e-05 | – | –
G32A G59C | < 1e-05 | < 1e-05 | < 1e-05 | – | < 1e-05
G32A U49G C68A | < 1e-05 | – | – | – | –
G32A U65C | < 1e-05 | – | – | – | –
G32C A36C G37C | < 1e-05 | – | – | – | –
G32C A48G | < 1e-05 | – | – | < 1e-05 | < 1e-05
G32C A53U | < 1e-05 | – | 2.59e-05 ± 6.8e-06 | 5.79e-05 ± 5e-06 | < 1e-05
G32C C58U | < 1e-05 | – | – | – | < 1e-05
G32C G37U | < 1e-05 | < 1e-05 | – | – | –
G32C G38U | < 1e-05 | < 1e-05 | – | < 1e-05 | < 1e-05
G32C G41A | < 1e-05 | < 1e-05 | – | – | < 1e-05
G32C G51C G59U C71U | < 1e-05 | – | – | < 1e-05 | –
G32C U65C | < 1e-05 | < 1e-05 | < 1e-05 | < 1e-05 | < 1e-05
G32U A33C G59A | < 1e-05 | – | – | < 1e-05 | –
G32U A52C | < 1e-05 | – | – | – | –
G32U A64U C68U | < 1e-05 | – | – | < 1e-05 | –
G32U C34A G51C | < 1e-05 | – | – | – | < 1e-05
G32U C34U | < 1e-05 | – | – | – | –
G32U G35U C58G | < 1e-05 | – | – | < 1e-05 | –
G32U G62C | < 1e-05 | < 1e-05 | < 1e-05 | – | < 1e-05
